Recombinant human monoclonal antibodies (heavy:light variable regions). ELISA EC50 on the named antigen, from 10 µg/ml down; IC50 / IC90 against spike pseudovirus on 293T-ACE2 cells, 48 h; lower = stronger. Calls: IC50 above 1,000 ng/ml = non-neutralizing; EC50 above 1,000 ng/ml = non-binder. The source prints 1000 for neutralization that was not reached; it is given as >1000 ng/ml. Only binders of the Wuhan-Hu-1 domain have neutralization values.
B1: B2030 (protein)
chain 1: QVQLVQSGAEVKKPGSSVKVSCKASGGTFSTYAIIWVRQAPGQGLEWMGGIIPVFDAANSAQKFQGRVTITADKSTSTAYMELSSLRSEDTAVYYCARVKRLWHESVARYYFDYWDQGTLVTVSS
chain 2: IRMTQSPSSLSASVGDRVTITCQASQDISNYLNWYQQKPGKAPKLLIYDASNLETGVPSRFSGSGSGTDFTFTISSLQPEDIATYYCQQYENLPVLSFGGGTKVEIK
B2: B2027 (protein)
chain 1: VQLVESGGGVVQPGRSLRLSCAVSGFAFRKYGIHWVRQAPGKGLEWVAVISYDGGNIDYADSVKGRFTISRDNSKDTVYLEMNNLRAEDTAVYYCAKQTGTYCSGGNCYSGYFDYWGQGTLVTVSS
chain 2: AIRMTQSPSSLSASVGDRVTITCRASQGISSALVWYQQKPGKAPKLLIYDASSLESGVPSRFSGSGSGADFTLTISSLQPEDFATYYCQQFYDSPPLTFGGGTKVEIK
B3: B2033 (protein)
chain 1: VQLVESGGGVVQPGRSLRLSCAASGFTFSIYGMHWVRQAPGEGLEWVALISYDESNKYYADSVKGRFTISRDNSKNTLYLQMDSLRAEDTAVYYCVKQLGTYCSGGSCYSGFFDYWGQGTLVTVSS
chain 2: IRMTQSPSSLSASVGGRVTITCQASQDITNYLNWYQQKPGKAPKLLIYDASNLEAGVPSRFSGSGSGTHFTFTINSLQPEDIATYYCQQYDNLPFTFGPGTKVDIK
B4: B2031 (protein)
chain 1: EVQLVESGGGLVQPGRSLRLSCAASGFIFEDYAMHWVRQAPGKGLEWVSGVSYNSGTIGYADSVKGRFIISRDNAKNSLYLQMRSLRPEDTAFYYCAKAKEPKDAYSDGDEYCFDSWGQGILVTVSS
chain 2: QSVLTQPPSASGTPGQRVTVSCSGSSSNIGSNYVSWYQQLPGTAPKLLVYRSNQRPSGVPDRFSGSKSGTSASLAISGLRSEDEADYYCAAWDDSLSGVLFGGGTKLTVL
B5: B2009 (protein)
chain 1: QVQLVQSGAEVKKPGASVKVSCKASGYAFTNYAISWVRQATGQGLEWMGWMSPQDGDTGYAQKFQGRVTMTSDTSISTAYMELSGLTSEDTALYYCARGPRTNSDYFDFWGQGTLVTVSS
chain 2: DIQMTQSPSPLSASVGDRVTITCRASQTISTWLAWYQQKPGQAPKLLIYDASSLESGVPSRFSGSGSGTEFTLTISSLQPDDFATYYCQQYNNYPFTFGPGTKVDIK
B6: B2029 (protein)
chain 1: QVQLVQSGAEVKKPGSSVKVSCKASGGTFRIYAINWVRQAPGQGLEWMGGIIPMVGKANYAQKFRGRVTITADESTSTAYMELSSLRSEDTAVYYCARDFRECTSTSCLYFFDYWGQGTLVTVSS
chain 2: DIQLTQSPSSLSASVRDRVTLTCRASQNITTYLNWYQQKPGKAPKLLIYAASSLQSGVPSRFSGSGSGTDFTLTISSLQPEDFATYYCQQSFSGPRTFGLGTKVEIK
B7: B2032 (protein)
chain 1: QLQLQESGPGLAKPSETLSLTCSVSGGSISSVNYYWGWIRQPPGKGLEWIVSVYYGGNTHYNPSLKSRVTISVDTSKNQMSLKLNSVTAADTAVYYCARHEYYYDRRGSPRLGWFDPWGQGTLVTVSS
chain 2: IRMTQSPSSLSASVGDRVTITCQASQDINTYLNWYQQKPGKAPKLLIYDVFNLETGVPSRFSGSGSGTEFTLTISSLQPEDIGTYYCQQYNNFALTFGGGTKVEIK
B8: B2141 (protein)
chain 1: QVQLVQSGAEVKKPGSSVRVSCKASGGTLINYAVSWVRQAPGQGLEFMGGLIPILGTSYYAQKFQGRVTIIADESRRTVYMELSNLKSEDTAVYYCATGVRNCPGGGCYSAYFQHWGQGTLVTVSS
chain 2: EIVLTQSPGTLSLSPGERATLSCRASQSVSRSHLAWYQQKPGQAPRLLIFGASSRATGIPDRFNGSGSGTDFTLTIRSLDREDFAVYYCHHYGDSTGTFGQGTKLEIK
B9: B2026 (protein)
chain 1: EVQLVESGGGLVQPGRSLRLSCAASGFSFEDYAMHWVRQAPGKGLEWVSGISGNSGTLGYADSVKGRFIISRDNAKNSLYLQMRSLRVEDTALYYCAKDMAGVVILGVEEKYGMDVWGQGTTVTVSS
chain 2: SYELTQPPSVSVAPGKTAKITCGGDNIGSKSVHWYKQKPGQAPLLVIYYDNDRPSQIPERFSGSNSGNMATLTINRVEAGDEADYYCQVWNSGSDHVVFGGGTKLTVL
B10: B2144 (protein)
chain 1: QVQLQESGPGLVKPSQTMSLTCTVSGVDITSGGHFWSWIRHHPGKGLEWIGHIFYSGSTNYNPSLKSRVMMSVDTSKNQFSLKLTSVTAGDTAVYYCVRGGSGSYYMADYWGQGTLVTVSS
chain 2: IRMTQSPSSLSASVGDRVTITCQASQDISNHLNWYQQRPGKAPKLLIYDASNLEAGVPSRFSGSGSGTDFTFTIQSLQPEDIATYYCQSYDNLPRPFFGQGTRLEIK
B11: B2024 (protein)
chain 1: QLVQSGPEVKKPGTSVKVSCKASGFTFTTSAVQWVRQARGQRLEWIGWIAVGSGKTEYAQKFQERVALSRDTSANTAYMDLRSLTSEDTAVYYCAAPDCNRTTCLDGFDIWGQGTMVTVSS
chain 2: EIVLTQSPGTLSLSPGERTTLSCRASQSVSRNYLAWYLQKPGQAPRLLIYAASSRATGIPDRFSGSGSGTDFTLAISRLEPEDFAVYYCQQYGTSPWTFGQGTKLEIK
B12: B2028 (protein)
chain 1: VQLVESGGGVVQPGRSLRLSCAASGFTISTYGMHWVRQAPGKGLEWVAVISYDGSNIYYADSVKGRFTISRDNSNNTLYLQMNSLRAEDTAVYYCAKQNAPYCSGGSCYEGYFDYWGQGALVTVSS
chain 2: EIVLTQSPGTLSLSPGERATLSCRASQSVTSSYLAWYQQKPGQAPRLLISGASSRATGIPDRFSGSGSGTDFTLTISRLEPEDFAVYYCQQYGSSLLTFGGGTKVEIK
B13: B2025 (protein)
chain 1: EVQLVETGGGLIQPGGSLRLSCAASEILVSRNYMSWVRQAPGKGLEWVSVLFPGGSTNYADPVKGRFTISRDNSKNTLYLQMNSLRAEDTAVYYCARGLFGEWGYFDCWGQGTLVTVSS
chain 2: DIQLTQSPSSLSASVGDRVTITCRASQGISNYLAWYQQKPGKAPKLLISAASTVESGVSSRFSGSGSGTDFTLTISSLQSEDVATYYCQKYNSAPGTFGQGTKVEIK
B14: B2143 (protein)
chain 1: QVQLQESGPGLVKPSETLSLDCTVSGASINYYYWTWIRQPPGKGLEWIGYVFYSGSTNYNPSLKSRVTISVDSSANQFSLRLSSVTAADTAVYYCARGGMEYDGLLTGYYLDSWGQGTLVTVSS
chain 2: IRMTQSPSSLSASVGDRVTITCRASQDISNFLNWYQQKPGKAPKLLIYRASSLETGVPSRFSGSGSGTHFTFTISSLQPEDIATYYCQQYDNVLLTFGGGTKVDIK

Target: SARS-CoV-2 Wuhan-Hu-1 spike pseudovirus
Test: pseudovirus neutralization IC50; higher = weaker neutralization
Procedure: (§1)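 Single-round luciferase reporter pseudovirus mixed with antibody dilutions and put on 293T-ACE2 cells for 48 h; signal relative to no-antibody wells, four-parameter fit.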

Row | Binder | pseudovirus neutralization IC50 [µg/mL]
1 | B1 | 0.00366
2 | B2 | > 1
3 | B3 | > 1
4 | B4 | 0.0176
5 | B5 | 0.528
6 | B6 | 0.0036
7 | B7 | 0.0316
8 | B8 | 0.00569
9 | B9 | 0.0056
10 | B10 | > 1
11 | B11 | 0.00625
12 | B12 | > 1
13 | B13 | 0.0134
14 | B14 | > 1

Target: SARS-CoV-2 Wuhan-Hu-1 spike pseudovirus
Test: pseudovirus neutralization IC90; higher = weaker neutralization
Procedure: as §1

Row | Binder | pseudovirus neutralization IC90 [µg/mL]
15 | B1 | 0.0227
16 | B2 | > 1
17 | B3 | > 1
18 | B4 | 0.12
19 | B5 | > 1
20 | B6 | 0.0228
21 | B7 | 0.198
22 | B8 | 0.0692
23 | B9 | 0.145
24 | B10 | > 1
25 | B11 | 0.0401
26 | B12 | > 1
27 | B13 | 0.0919
28 | B14 | > 1

Target: SARS-CoV-2 Delta (B.1.617.2) spike RBD
Test: ELISA binding EC50; higher = weaker binding; ELISA of recombinant human antibody on coated antigen, from 10 µg/ml in fourfold dilutions; four-parameter fit.

Row | Binder | ELISA binding EC50 [µg/mL]
29 | B1 | > 1
30 | B2 | 0.0152
31 | B3 | 0.0284
32 | B4 | 0.0512
33 | B5 | 0.0163
34 | B6 | 0.0492
35 | B7 | 0.00841
36 | B8 | 0.0147
37 | B9 | 0.01
38 | B10 | 0.0454
39 | B11 | 0.00952
40 | B12 | 0.0979
41 | B13 | 0.0131
42 | B14 | 0.0137

Target: SARS-CoV-2 Omicron BA.1 spike protein
Test: as above

Row | Binder | ELISA binding EC50 [µg/mL]
43 | B1 | 0.00368
44 | B2 | 0.00594
45 | B3 | 0.00836
46 | B4 | 0.00786
47 | B5 | 0.0109
48 | B6 | > 1
49 | B7 | 0.0295
50 | B8 | 0.0559
51 | B9 | 0.00875
52 | B10 | 0.0083
53 | B11 | 0.021
54 | B12 | 0.0485
55 | B13 | > 1
56 | B14 | 0.00679

Target: SARS-CoV-2 Wuhan-Hu-1 spike receptor-binding domain
Test: as above

Row | Binder | ELISA binding EC50 [µg/mL]
57 | B1 | 0.00072
58 | B2 | 0.00244
59 | B3 | 0.00354
60 | B4 | 0.00258
61 | B5 | 0.00263
62 | B6 | 0.00237
63 | B7 | 0.00278
64 | B8 | 0.00245
65 | B9 | 0.00331
66 | B10 | 0.00118
67 | B11 | 0.0015
68 | B12 | 0.0116
69 | B13 | 0.0104
70 | B14 | 0.00325
